Experimental data from a collection of fitness landscapes (doi:10.1016/j.celrep.2020.107928).
Over roughly 81,000 sequences, “one-hybrid fitness for binding parS DNA” has its median near -0.17; the highest 2% begin near 0.51. This is one part of the list.

B1: Caulobacter ParB omega fusion; a variant is named by its letters at X, in order, B8GW30 (parent)
chain: MESVVVGEPGMSEGRRGLGRGLSALLGEVDAAPAQAPGEQLGGSREAPIEILQRNPDQPRRTFREEDLEDLSNSIREKGVLQPILVRPSPDTAGEYQIVAGERAWRAAQRAGLKTVPIMVRELDDLAVLEIGIIENVQRADLNVLEEALSYKVLMEKFERTQENIAQTIGKSXSHVANXMRLLXLPDEVQSYLVSGELTAXHARAIAAAADPVALAKQIIEGGLSVRETEALARKAPNLSAGKSKGGRPPRVKDTDTQALESDLSSVLGLDVSIDHRGSTGTLTITYATLEQLDDLCNRLTRGI

Variants of: B1
Assay: one-hybrid fitness for binding parS DNA (scaled: cognate 1, non-cognate 0); higher = stronger binding
Conditions: with parS DNA site
Summary of the method: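 Pre- and post-selection plasmids were Illumina-sequenced, three replicate libraries were pooled, and any variant with under 10 reads was removed. The libraries were Caulobacter ParB with four specificity codons randomised, selected in E. coli USO through a HIS3 reporter whose site is 19 bp from the promoter. Cells grew 48 hours at 37°C on M9 without histidine, with 0.1 mM IPTG and 5 mM 3-AT. Fitness is the log change in variant-to-wild-type read ratio, rescaled against cognate and non-cognate.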

one-hybrid fitness for binding parS DNA, 0.352:
RSDY

one-hybrid fitness for binding parS DNA, 0.381:
RHCN

one-hybrid fitness for binding parS DNA, ≤ 0.2:
WRTL
PTTC
QSSK
HEAN
ELKV
QSFF
LKSD
TVNY
MNDT
GTAC
HYMS
QEME
LAPK
STTV
TINM
YKDV
YSIL
DEMT
PYDC
SGHW
SRAG
AKPL
KINL
LESF
VHYT
TVAA
SYRK
VTSL
LLCC
AFIS
DYLF
NYLA
GWPR
LSVF
DHLC
YDVG
TETN
KACM
GTYS
ILCT
ADQG
KGRG
RVRP
LTTN
APMS
HVAN
IDNS
RIYD
YELC
NCSI
THRF
ATQD
IGPI
KPCN
VGKA
QCGE
QGLI
HQSG
HCMG
QMNN
TAAT
TRLV
EAFS
THVY
QHHK
SQHV
WRFS
AVTK
MACE
KLGV
QIRT
FFVR
SQML
HATA
VNSV
MTMC
NARG
VTRT
NIRR
NEVG
PCPV
TWPL
QHNS
SDKG
DTRG
HSGG
KFQR
LDKC
NDSV
QSMA
RPSI
PTHS
ASQG
WTAL
QNPD
TLKE
RHML
WGRR
PNMT
CPRW
LTET
GYVG
NMGS
QTNE
MVRP
KNTP
VETE
KLFY
NARQ
VAQC
FPSR
QQAT
GDAW
QQGW
HWAR
DNHL
QIYM
RGHL
TVDH
TMEL
KRHL
REKL
PCYY
LYFI
SFMV
LAFT
NNRY
RGED
ARTL
ELET
RPVD
QRSV
PSTR
FYMR
FEGS
AHEV
LVTG
QTSR
ANIL
RWCK
TPIN
QFQS
VYLG
CKQG
RFPD
CEMW
ESIR
YADS
ALET
QFRN
RCGP
TQGE
VPIL
KPDL
HAFV
TNFG
QINV
PDQF
GAYW
DNVT
HFQF
IMIR
GFPG
DFNV
AARQ
LNRE
DQQE
QMAN
WHSE
LASF
CDRP
HGEK
HDMA
NHMS
YKET
VLWY
EAPV
QAYL
AGNI
LNGE
QADV
KQHF
HYRF
LKQN
TTAR
HLYL
RWNK
PSML
EIRS
NENC
VLQI
SASN
PLVV
AGYT
KNAR
TLMT
YMWN
MYNL
QYVF
HDAC
RSCD
VAIA
SVTP
NGAV
GNPG
QQFI
GLVP
HTML
QKLS
LALY
WYWI
EDSG
DLAF
AMDC
NMCS
RTLE
QVHG
QLNH
DMQG
TKDA
NPTN
RYEI
VKAS
HVIG
GNAF
RIPD
CWVC
PRYT
HTLM
ELME
QQKY
RQNI
HWTV
VSKL
SPWC
RPPI
ECAG
ASFM
YACR
PELT
TPGK
HQSE
RADE
LCLT
LVRA
IIMW
LVID
QAST
HEMR
LVVR
PPCP
SHNT
SILC
RFVH
PDPN
GPWS
GQDS
CHPR
HSGP
QRDS
SMSW
ITSS
NNSC
DKNS
HLQP
KANA
IFPM
GQWC
LAVK
DSFI
GASV
NDMR
DELM
FSVV
CANG
LFRV
QRHI
DKHC
SRCF
GCLM
QLFS
VLQW
MDYV
HAID
YYAS
RKLP
DNLW
ITDT
ASQM
MFNR
ISPE
YVHY
NFMS

one-hybrid fitness for binding parS DNA, 0.415:
RTTN

one-hybrid fitness for binding parS DNA, 0.977:
RFTG

one-hybrid fitness for binding parS DNA, 0.995:
RLWG

one-hybrid fitness for binding parS DNA, 0.904:
RVIG

one-hybrid fitness for binding parS DNA, 0.24:
RARW

one-hybrid fitness for binding parS DNA, 0.998:
RAQS

one-hybrid fitness for binding parS DNA, 0.831:
RVKS

one-hybrid fitness for binding parS DNA, 0.201:
RCML

one-hybrid fitness for binding parS DNA, 0.339:
RWNY

one-hybrid fitness for binding parS DNA, 0.476:
RAEA

one-hybrid fitness for binding parS DNA, 0.812:
RVPS
